# Reference: the supplement of paper PMC8728848
# The list shows a part of the results.
# B1: Cohesin-hMARCO (Homo sapiens) (protein)
# chain: LDDLDAVRIKVDTVNAKPGDTVRIPVRFSGIPSKGIANCDFVYSYDPNVLEIIEIEPGDIIVDPNPDKSFDTAVYPDRKIIVFLFAEDSGTGAYAITKDGVFATIVAKVKEGAPNGLSVIKFVEVGGFANNDLVEQKTQFFDGGANVGDTTEPATPTTPVTTPTTTDDLDAASVRIVGSSNRGRAEVYYSGTWGTICDDEWQNSDAIVFCRMLGYSKGRALYKVGAGTGQIWLDNVQCRGTESTLWSCTKNSWGHHDCSHEEDAGVECSVHHHHHH
# Legend:
# Test in all cases: glycan array binding signal (z-score within array); higher = stronger binding
# Conditions in all cases: glycan notation: IUPAC condensed, linker removed
# [1] = molecular target: Neu5Ac(a2-3)Gal(b1-3)[Fuc(a1-4)]GlcNAc
# Outline: (§1)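 Glycan array binding is given as a within-array Z-score, which can be read as non-binding when negative. The arrays, 3228 of them, came from the Consortium for Functional Glycomics database and were retained only where the protein sequence was available. Z-scores were averaged across arrays of the same protein sequence at different concentrations or buffers and across linkers.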
# [2] = molecular target: Neu5Ac(a2-3)Gal(b1-3)[Fuc(a1-4)]GlcNAc(b1-3)Gal(b1-3)[Fuc(a1-4)]GlcNAc
# Outline: as §1
# [3] = molecular target: Neu5Ac(a2-3)Gal(b1-3)[Fuc(a1-4)]GlcNAc(b1-3)Gal(b1-4)[Fuc(a1-3)]GlcNAc
# Outline: as §1
# [4] = molecular target: Neu5Ac(a2-3)Gal(b1-3)[GlcNAc(b1-6)]GalNAc
# Outline: as §1
# [5] = molecular target: Neu5Ac(a2-3)Gal(b1-3)[Neu5Ac(a2-6)]GalNAc
# Outline: as §1
# [6] = molecular target: Neu5Ac(a2-3)Gal(b1-3)[Neu5Ac(a2-6)]GlcNAc(b1-3)[Fuc(a1-3)[Gal(b1-4)]GlcNAc(b1-6)]Gal(b1-4)Glc
# Outline: as §1
# [7] = molecular target: Neu5Ac(a2-3)Gal(b1-3)]Neu5Ac(a2-3)Gal(b1-4)]GlcNAc
# Outline: as §1
# Neu5Ac(a2-3)Gal(b1-4)Glc = molecular target: Neu5Ac(a2-3)Gal(b1-4)Glc
# Outline: as §1
# [8] = molecular target: Neu5Ac(a2-3)Gal(b1-4)GlcNAc
# Outline: as §1
# [9] = molecular target: Neu5Ac(a2-3)Gal(b1-4)GlcNAc(b1-2)Man
# Outline: as §1
# [10] = molecular target: Neu5Ac(a2-3)Gal(b1-4)GlcNAc(b1-2)Man(a1-3)[GlcNAc(b1-4)][Neu5Ac(a2-3)Gal(b1-4)GlcNAc(b1-2)Man(a1-6)]Man(b1-4)GlcNAc(b1-4)GlcNAc
# Outline: as §1
# [11] = molecular target: Neu5Ac(a2-3)Gal(b1-4)GlcNAc(b1-2)Man(a1-3)[Neu5Ac(a2-3)Gal(b1-4)GlcNAc(b1-2)Man(a1-6)]Man(b1-4)GlcNAc(b1-4)GlcNAc
# Outline: as §1
# [12] = molecular target: Neu5Ac(a2-3)Gal(b1-4)GlcNAc(b1-2)Man(a1-3)[Neu5Ac(a2-3)Gal(b1-4)GlcNAc(b1-2)Man(a1-6)]Man(b1-4)GlcNAc(b1-4)[Fuc(a1-6)]GlcNAc
# Outline: as §1
# [13] = molecular target: Neu5Ac(a2-3)Gal(b1-4)GlcNAc(b1-2)Man(a1-3)[Neu5Ac(a2-6)Gal(b1-4)GlcNAc(b1-2)Man(a1-6)]Man(b1-4)GlcNAc(b1-4)GlcNAc
# Outline: as §1
# [14] = molecular target: Neu5Ac(a2-3)Gal(b1-4)GlcNAc(b1-2)[Neu5Ac(a2-3)Gal(b1-4)GlcNAc(b1-4)]Man(a1-3)[GlcNAc(b1-4)][Neu5Ac(a2-3)Gal(b1-4)GlcNAc(b1-2)[Neu5Ac(a2-3)Gal(b1-4)GlcNAc(b1-6)]Man(a1-6)]Man(b1-4)GlcNAc(b1-4)GlcNAc
# Outline: as §1
# [15] = molecular target: Neu5Ac(a2-3)Gal(b1-4)GlcNAc(b1-2)[Neu5Ac(a2-3)Gal(b1-4)GlcNAc(b1-4)]Man(a1-3)[GlcNAc(b1-4)][Neu5Ac(a2-3)Gal(b1-4)GlcNAc(b1-4)Man(a1-6)]Man(b1-4)GlcNAc(b1-4)GlcNAc
# Outline: as §1
# [16] = molecular target: Neu5Ac(a2-3)Gal(b1-4)GlcNAc(b1-2)[Neu5Ac(a2-3)Gal(b1-4)GlcNAc(b1-6)]Man(a1-6)[Neu5Ac(a2-3)Gal(b1-4)GlcNAc(b1-2)Man(a1-3)]Man(b1-4)GlcNAc(b1-4)GlcNAc
# Outline: as §1
# [17] = molecular target: Neu5Ac(a2-3)Gal(b1-4)GlcNAc(b1-2)[Neu5Ac(a2-3)Gal(b1-4)GlcNAc(b1-6)]Man(a1-6)[Neu5Ac(a2-3)Gal(b1-4)GlcNAc(b1-2)Man(a1-3)][GlcNAc(b1-4)]Man(b1-4)GlcNAc(b1-4)GlcNAc
# Outline: as §1
# [18] = molecular target: Neu5Ac(a2-3)Gal(b1-4)GlcNAc(b1-3)Gal
# Outline: as §1
# [19] = molecular target: Neu5Ac(a2-3)Gal(b1-4)GlcNAc(b1-3)Gal(b1-3)GlcNAc
# Outline: as §1
# [20] = molecular target: Neu5Ac(a2-3)Gal(b1-4)GlcNAc(b1-3)Gal(b1-4)GlcNAc
# Outline: as §1
# [21] = molecular target: Neu5Ac(a2-3)Gal(b1-4)GlcNAc(b1-3)Gal(b1-4)GlcNAc(b1-2)Man(a1-3)[Neu5Ac(a2-3)Gal(b1-4)GlcNAc(b1-3)Gal(b1-4)GlcNAc(b1-2)Man(a1-6)]Man(b1-4)GlcNAc(b1-4)GlcNAc
# Outline: as §1
# [22] = molecular target: Neu5Ac(a2-3)Gal(b1-4)GlcNAc(b1-3)Gal(b1-4)GlcNAc(b1-3)Gal(b1-4)GlcNAc
# Outline: as §1
# [23] = molecular target: Neu5Ac(a2-3)Gal(b1-4)GlcNAc(b1-3)Gal(b1-4)GlcNAc(b1-3)Gal(b1-4)GlcNAc(b1-2)Man(a1-3)[Neu5Ac(a2-3)Gal(b1-4)GlcNAc(b1-3)Gal(b1-4)GlcNAc(b1-3)Gal(b1-4)GlcNAc(b1-2)Man(a1-6)]GalNAc
# Outline: as §1
# [24] = molecular target: Neu5Ac(a2-3)Gal(b1-4)GlcNAc(b1-3)Gal(b1-4)GlcNAc(b1-3)GalNAc
# Outline: as §1
# [25] = molecular target: Neu5Ac(a2-3)Gal(b1-4)GlcNAc(b1-3)Gal(b1-4)GlcNAc(b1-3)[Neu5Ac(a2-3)Gal(b1-4)GlcNAc(b1-3)Gal(b1-4)GlcNAc(b1-6)]GalNAc
# Outline: as §1
# [26] = molecular target: Neu5Ac(a2-3)Gal(b1-4)GlcNAc(b1-3)Gal(b1-4)GlcNAc(b1-6)[Gal(b1-3)]GalNAc
# Outline: as §1
# [27] = molecular target: Neu5Ac(a2-3)Gal(b1-4)GlcNAc(b1-3)Gal(b1-4)[Fuc(a1-3)]GlcNAc
# Outline: as §1
# [28] = molecular target: Neu5Ac(a2-3)Gal(b1-4)GlcNAc(b1-3)GalNAc
# Outline: as §1
# [29] = molecular target: Neu5Ac(a2-3)Gal(b1-4)GlcNAc(b1-3)[Neu5Ac(a2-3)Gal(b1-4)GlcNAc(b1-6)]GalNAc
# Outline: as §1
binder,measurement,setting,value
B1,glycan array binding signal (z-score),[1],-0.569
same,glycan array binding signal (z-score),[2],-0.207
same,glycan array binding signal (z-score),[3],-0.491
same,glycan array binding signal (z-score),[4],-0.287
same,glycan array binding signal (z-score),[5],-0.255
same,glycan array binding signal (z-score),[6],-0.587
same,glycan array binding signal (z-score),[7],-0.303
same,glycan array binding signal (z-score),Neu5Ac(a2-3)Gal(b1-4)Glc,-0.436
same,glycan array binding signal (z-score),[8],-0.448
same,glycan array binding signal (z-score),[9],0.296
same,glycan array binding signal (z-score),[10],-0.529
same,glycan array binding signal (z-score),[11],0.02
same,glycan array binding signal (z-score),[12],-0.31
same,glycan array binding signal (z-score),[13],-0.562
same,glycan array binding signal (z-score),[14],-0.288
same,glycan array binding signal (z-score),[15],-0.007
same,glycan array binding signal (z-score),[16],-0.382
same,glycan array binding signal (z-score),[17],-0.419
same,glycan array binding signal (z-score),[18],-0.069
same,glycan array binding signal (z-score),[19],-0.492
same,glycan array binding signal (z-score),[20],-0.514
same,glycan array binding signal (z-score),[21],-0.478
same,glycan array binding signal (z-score),[22],-0.429
same,glycan array binding signal (z-score),[23],-0.425
same,glycan array binding signal (z-score),[24],-0.222
same,glycan array binding signal (z-score),[25],-0.558
same,glycan array binding signal (z-score),[26],-0.369
same,glycan array binding signal (z-score),[27],-0.528
same,glycan array binding signal (z-score),[28],-0.426
same,glycan array binding signal (z-score),[29],-0.546
